Each structure is given as a SMILES string. “And” between values parts separate entries of the source, which are not always exact repeats. Equal entries are not always repeated. The list shows a part of the results. Shown are side measurements of this screen, not its main read-out; they come without a call.

We go through 30 molecules from PubChem BioAssay AID1745853 (National Center for Advancing Translational Sciences (NCATS), 2022).

Common to all, as to test: Primary Screen for Target Class Profiling of Small Molecule Inhibitors of Methyltransferases
Experiment [1] addresses Glycine N-methyltransferase (Homo sapiens) (UniProt Q14749). To be noted: purified enzyme, MTase-Glo SAH luminescence; measured here: GNMT inhibition; at 40 µM; stronger effect = lower value. In short, it runs like this: (§1)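 Each enzyme was reacted with SAM and its substrate, with compounds tested once at 40 uM; SAH formed was read by MTase-Glo luminescence.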
Experiment [2] deals with Guanidinoacetate N-methyltransferase (Homo sapiens) (UniProt Q14353). To be noted: purified enzyme, MTase-Glo SAH luminescence; measured here: GAMT inhibition; at 40 µM; stronger effect = lower value. The procedure, abridged:
as §1

In experiment [3] the target is Histamine N-methyltransferase (Homo sapiens) (UniProt P50135). To be noted: purified enzyme, MTase-Glo SAH luminescence; measured here: HNMT inhibition; at 40 µM; stronger effect = lower value. The procedure, abridged:
as §1

In experiment [4] the target is Nicotinamide N-methyltransferase (Homo sapiens) (UniProt P40261). To be noted: purified enzyme, MTase-Glo SAH luminescence; measured here: NNMT inhibition; at 40 µM; stronger effect = lower value. In short, it runs like this:
as §1

For experiment [5], the target named is Phenylethanolamine N-methyltransferase (Homo sapiens) (UniProt P11086). The settings on record: purified enzyme, MTase-Glo SAH luminescence; measured here: PNMT inhibition; at 40 µM; stronger effect = lower value. The procedure, abridged:
as §1
% is scaled to controls: 0 for no effect and ±100 for the full control effect.

With `Cc1ccc(C)c(S(=O)(=O)c2nnn3c2nc(NCCc2c[nH]c4ccccc24)c2ccccc23)c1`, the activity change, negative = inhibition in experiment [1] is -8.07%; in experiment [2] it was 1.08%; in experiment [3] it was -9.2%; in experiment [4], -11%; in experiment [5], -9.48%.

`O=C(NCC(O)CO)c1ccncc1Nc1ccc(I)cc1F` (stereo not given): the activity change, negative = inhibition was -0.688% in experiment [1]; 3.43% in experiment [2]; 11.9% in experiment [3]; -9.2% in experiment [4]; 1.56% in experiment [5].

For `Cc1oc(S(=O)(=O)N2CCCCC2)cc1NC(=O)Nc1ccccc1`, the activity change, negative = inhibition in experiment [1] is 2.8%; in experiment [2], 3.78%; in experiment [3], 8.53%; in experiment [4], -10.2%; in experiment [5], -0.664%.

Consider `C=C1C(=O)[C@@]23C(CC[C@@H]1[C@H]2O)[C@@]12CO[C@]3(O)[C@@H](O)[C@@H]1C(C)(C)CC[C@@H]2O` (stereo not given in full), for which the activity change, negative = inhibition is -2.52% in experiment [1]; 2.22% in experiment [2]; 1.73% in experiment [3]; -14.3% in experiment [4]; -4.35% in experiment [5].

In the case of `CCCCN1C(=O)c2cc(C(=O)Nc3ccccc3Cl)nn2CC1(C)C(=O)NC1CCCC1` (stereo not given), the activity change, negative = inhibition in experiment [1] was -1.05%; in experiment [2] it was 3.73%; in experiment [3], -14%; in experiment [4], 2.96%; in experiment [5], 3.48%.

Consider `COCC(=O)N[C@H]1CCN(C(=O)COC)[C@H](C(=O)N[C@H](Cc2ccccc2)C(N)=O)C1`, for which the activity change, negative = inhibition was -1.78% in experiment [1]; -6.53% in experiment [2]; -1.11% in experiment [3]; -3.26% in experiment [4]; -0.996% in experiment [5].

As for `COC(=O)c1ncn2c1C(=O)N(Cc1ccc(OC)cc1OC)C(C)(C(=O)NC1CCCCC1)C2` (stereo not given), the activity change, negative = inhibition came out at 4.88% in experiment [1]; 1.06% in experiment [2]; 1.5% in experiment [3]; 0.387% in experiment [4]; 4.66% in experiment [5].

Regarding `COc1ccc(OC)c(S(=O)(=O)NCC2CNCCOC2)c1` (stereo not given), the activity change, negative = inhibition is -2.84% in experiment [1]; 0.91% in experiment [2]; -2.96% in experiment [3]; -2.18% in experiment [4]; -5.08% in experiment [5].

For `CCOC(=O)Cc1c(-c2ccccc2)c2cc(C)ccc2[nH]c1=O`, the activity change, negative = inhibition came to 0.599% in experiment [1]; 0% in experiment [2]; 7.82% in experiment [3]; 11.8% in experiment [4]; 1.12% in experiment [5].

Take `O=C1CCC=CC1(O)C(=O)OCc1ccccc1O[C@@H]1O[C@H](CO)[C@@H](O)[C@H](O)[C@H]1O` (stereo not given in full): the activity change, negative = inhibition in experiment [1] was -2.24%; in experiment [2], -12.8%; in experiment [3], 3.97%; in experiment [4], -25.1%; in experiment [5], -11%.

`CN1CCN2c3ccccc3Cc3ccccc3C2C1` (stereo not given): the activity change, negative = inhibition in experiment [1] was 3.65%; in experiment [2], 11.4%; in experiment [3], 8.39%; in experiment [4] it was -11.6%; in experiment [5] it was -1%.

`O=C1NCCOCCN(C(=O)NC2CCCCC2)[C@@H]2CCCC[C@H]12`: the activity change, negative = inhibition in experiment [1] was -3.07%; in experiment [2] it was -4.97%; in experiment [3] it was -0.753%; in experiment [4], -1.44%; in experiment [5], 3.14%.

Turning to `CCN(Cc1ccccc1)C(=O)CN(C)S(=O)(=O)c1ccc2[nH]c3c(c2c1)CCCC3`, the activity change, negative = inhibition in experiment [1] was -1.14%; in experiment [2], 4.37%; in experiment [3], 1.42%; in experiment [4], -4.77%; in experiment [5], -1.23%.

For `O=C(Cc1ccsc1)Nc1ccc2c(N3CCCC3)ncnc2c1`, the activity change, negative = inhibition in experiment [1] was -27.2%; in experiment [2] it was -16.7%; in experiment [3], -87.6%; in experiment [4], -25.3%; in experiment [5], -15.1%.

Turning to `N[C@@H](Cc1ccc(O)c(O)c1)C(=O)O`, the activity change, negative = inhibition in experiment [1] was -32.6%; in experiment [2] it was 6.08%; in experiment [3], 0.279%; in experiment [4], -5.35%; in experiment [5], 4.56%.

`O=C1NC2CCCCN2C12CCN(CCCN1c3ccccc3CCc3ccc(Cl)cc31)CC2` (stereo not given): the activity change, negative = inhibition in experiment [1] was 2.9%; in experiment [2], 4.85%; in experiment [3] it was -74.4%; in experiment [4] it was -46.9%; in experiment [5], 3.5%.

In the case of `COCCCNC(=O)C1(CCO)CCN(c2ncccn2)C1` (stereo not given), the activity change, negative = inhibition in experiment [1] is -0.602%; in experiment [2], -3.03%; in experiment [3], 1.03%; in experiment [4], 1.73%; in experiment [5] it was 0.472%.

With `O=C(CCc1nnc2n(CCc3ccccc3)c(=O)c3ccccc3n12)NCc1ccccc1`, the activity change, negative = inhibition in experiment [1] was -9.13%; in experiment [2], 2.36%; in experiment [3] it was -0.563%; in experiment [4], -0.974%; in experiment [5], -4.12%.

As for `CCCCc1ncc(/C=C(\Cc2cccs2)C(=O)O)n1Cc1ccc(C(=O)O)cc1`, the activity change, negative = inhibition is 2.5% and -0.303% in experiment [1]; 16.3% and 0.716% in experiment [2]; 13.9% and 5.85% in experiment [3]; -1.41% and -9.97% in experiment [4]; 3% and -2.1% in experiment [5].

For `O=C(CCc1nnc2n(Cc3ccccc3Cl)c(=O)c3ccccc3n12)NCCc1ccccc1`, the activity change, negative = inhibition in experiment [1] was -12.1%; in experiment [2], 1.74%; in experiment [3] it was 0.907%; in experiment [4] it was -9.29%; in experiment [5], -5.67%.

Take `Cc1oc2ccn(Cc3cccc(F)c3)c(=O)c2c1C(=O)NC1CCCC1`: the activity change, negative = inhibition in experiment [1] is -14.8%; in experiment [2], -10.4%; in experiment [3], -8.42%; in experiment [4], -38.6%; in experiment [5] it was -32.1%.

With `Cc1ccc(NC(=O)CSc2nnc3n(CC(C)C)c(=O)c4ccc(Cl)cc4n23)c(C)c1`, the activity change, negative = inhibition was -1.77% in experiment [1]; -2.57% in experiment [2]; 2.55% in experiment [3]; -4.27% in experiment [4]; -4.62% in experiment [5].

In the case of `C[S+](=O)([O-])NC1CC2(CCN(C(=O)c3ccccc3)CC2)c2ccccc21` (stereo not given), the activity change, negative = inhibition in experiment [1] is -4.85%; in experiment [2] it was -1.91%; in experiment [3] it was -1.49%; in experiment [4], -8.77%; in experiment [5], 3.87%.

As for `CC(C)CCN1C(=O)c2ccc(-c3ccccc3)n2CC1(C)C(=O)NC1CCCCC1` (stereo not given), the activity change, negative = inhibition is 2.71% in experiment [1]; 0.459% in experiment [2]; 3.82% in experiment [3]; 3.56% in experiment [4]; 1.9% in experiment [5].

`Cc1cc(NC(=O)N2CCn3cccc3C2Cc2ccccc2)ccc1Br` (stereo not given): the activity change, negative = inhibition was 9.67% in experiment [1]; 0% in experiment [2]; 8.91% in experiment [3]; -1.14% in experiment [4]; 4.43% in experiment [5].

For `Fc1cccc(-c2cc(-c3cn[nH]c3)c3cncn3c2)c1`, the activity change, negative = inhibition in experiment [1] was -26.4%; in experiment [2], -15%; in experiment [3], -26.7%; in experiment [4], -25.8%; in experiment [5], -17.1%.

Consider `CCN(CC)CCNC(=O)CCc1nnc2n(CCc3ccccc3)c(=O)c3ccccc3n12`, for which the activity change, negative = inhibition is -3.73% in experiment [1]; 0% in experiment [2]; -33.4% in experiment [3]; 4.18% in experiment [4]; -0.416% in experiment [5].

For the molecule `O=C1Nc2ccccc2CC12CCCN2C1COC1` (stereo not given), the activity change, negative = inhibition is -6.32% in experiment [1]; -8.79% in experiment [2]; -3.1% in experiment [3]; -9.74% in experiment [4]; -18.5% in experiment [5].

For the molecule `COC(=O)c1cc2n(n1)CC(C)(C(=O)NC1CCCCCC1)N(c1ccc(Cl)cc1C)C2=O` (stereo not given), the activity change, negative = inhibition in experiment [1] worked out at 1.09%; in experiment [2], 4.53%; in experiment [3], 2.95%; in experiment [4] it was 0%; in experiment [5], 0.217%.

In the case of `Cc1cccc(S(=O)(=O)N2CCCC(Cn3c(C4CC4)nc4cccnc43)C2)c1` (stereo not given), the activity change, negative = inhibition in experiment [1] was -30.4%; in experiment [2], -4.14%; in experiment [3], -5.47%; in experiment [4], -12.5%; in experiment [5], -8.62%.
